One assay concerns HSkMC. Briefly: cytotoxicity call (relative viability < 0.9). To be noted: 10 µM.
Another assay has as its system HepG2. Briefly: cytotoxicity call (relative viability < 0.9). Particulars: 10 µM.
The next assay concerns S. aureus RN4220. Briefly: growth inhibition call (relative growth <= 0.2). To be noted: 50 µM.

Each structure is given as a SMILES string. This is one part of the list.

As for `CO[C@H]1C[C@@H](C[C@@H](C)[C@H]2CC(=O)[C@@H](C)/C=C(\C)[C@@H](O)[C@@H](OC)C(=O)[C@@H](C)C[C@@H](C)/C=C/C=C/C=C(\C)[C@H](OC)C[C@H]3CC[C@@H](C)[C@@](O)(O3)C(=O)C(=O)N3CCCC[C@@H]3C(=O)O2)CC[C@@H]1OC(=O)C(C)(CO)CO`, the cytotoxicity call with HSkMC and with HepG2 was “inactive” in each case. In the assay on S. aureus RN4220, the growth inhibition call is “inactive”.
As for `C[C@@H](NC(=O)C[C@H]1C=C[C@@H](NC(=O)CN2CCOCC2)[C@H](CO)O1)c1ccccc1`, the cytotoxicity call in the assay on HSkMC and with HepG2 was “inactive” in each case. For the same molecule, in the assay with S. aureus RN4220, the growth inhibition call is “inactive”.
In the case of `C[C@@H]1CN([C@@H](C)CO)C(=O)c2cc(NS(=O)(=O)c3cn(C)cn3)ccc2O[C@H]1CN(C)S(=O)(=O)c1cn(C)cn1`, the cytotoxicity call with HSkMC and with HepG2 was “inactive” in each case. For the same molecule, the growth inhibition call in the assay with S. aureus RN4220 was “inactive”.
Take `COc1ccc(S(=O)(=O)Nc2ccc3c(c2)C(=O)N([C@@H](C)CO)C[C@H](C)[C@@H](CN(C)S(=O)(=O)c2cccs2)O3)cc1`: the cytotoxicity call with HSkMC and in the assay with HepG2 was “inactive” in each case. Besides, in the assay with S. aureus RN4220, the growth inhibition call is “inactive”.
As to `Cc1cc(O)c(C=O)c2c1C(=O)Oc1c(COC(=O)C=CC(=O)O)c(O)c(C(=O)O)c(C)c1O2`, the cytotoxicity call with HSkMC and in the assay with HepG2 was “inactive” throughout. Further, the growth inhibition call with S. aureus RN4220 was “inactive”.
In the case of `C[C@@H]1CCCCO[C@H](CN(C)C(=O)Nc2ccc(C(F)(F)F)cc2)[C@H](C)CN([C@H](C)CO)C(=O)c2cc(NS(=O)(=O)c3ccccc3)ccc2O1`, the cytotoxicity call in the assay on HSkMC was “inactive”. In addition, the cytotoxicity call in the assay on HepG2 was “active”. Also, the growth inhibition call with S. aureus RN4220 is “inactive”.
With `Cc1noc(C)c1NC(=O)N(C)C[C@@H]1Oc2ccc(NC(=O)Nc3cccc4ccccc34)cc2C(=O)N([C@H](C)CO)C[C@H]1C`, the cytotoxicity call with HSkMC and in the assay on HepG2 was “inactive” each time. The growth inhibition call in the assay on S. aureus RN4220 was “inactive”.
Take `Cc1noc(C)c1NC(=O)N(C)C[C@@H]1Oc2ccc(NC(=O)Nc3ccc(C(F)(F)F)cc3)cc2C(=O)N([C@H](C)CO)C[C@@H]1C`: the cytotoxicity call in the assay with HSkMC and in the assay with HepG2 was “inactive” each time. For the same molecule, in the assay on S. aureus RN4220, the growth inhibition call is “inactive”.
As to `CN(C)CC(=O)N[C@@H]1C=C[C@@H](CC(=O)NCCN2CCCCC2)O[C@H]1CO`, the cytotoxicity call with HSkMC and in the assay with HepG2 was “inactive” in each case. Further, the growth inhibition call with S. aureus RN4220 is “inactive”.
Take `C[C@@H]1CN([C@@H](C)CO)C(=O)c2cc(-c3ccc(C(=O)N(C)C)cc3)cnc2O[C@H]1CN(C)C(=O)C1CC1`: the cytotoxicity call in the assay on HSkMC and in the assay with HepG2 was “inactive” each time. In the assay on S. aureus RN4220, the growth inhibition call is “inactive”.
For the molecule `C[C@@H]1CN([C@H](C)CO)C(=O)c2cc(NC(=O)CCC(F)(F)F)ccc2O[C@H]1CN(C)C(=O)Nc1ccc(C(F)(F)F)cc1`, the cytotoxicity call in the assay with HSkMC and in the assay with HepG2 was “inactive” throughout. In addition, in the assay on S. aureus RN4220, the growth inhibition call is “inactive”.
As for `C[C@H](CO)N1C[C@H](C)[C@H](CN(C)Cc2ccc3c(c2)OCO3)Oc2c(NC(=O)c3ccncc3)cccc2C1=O`, the cytotoxicity call in the assay with HSkMC and in the assay with HepG2 was “inactive” each time. Besides, in the assay with S. aureus RN4220, the growth inhibition call was “inactive”.
As for `C[C@H]1CN([C@@H](C)CO)S(=O)(=O)c2ccc(-c3ccncc3)cc2O[C@@H]1CN(C)C(=O)c1ccc2c(c1)OCO2`, the cytotoxicity call in the assay with HSkMC and in the assay with HepG2 was “inactive” throughout. Also, the growth inhibition call in the assay with S. aureus RN4220 is “inactive”.
In the case of `CO[C@@H]1CN(C)C(=O)c2ccc(NS(=O)(=O)c3cn(C)cn3)cc2OC[C@@H](C)N(CC2CC2)C[C@@H]1C`, the cytotoxicity call with HSkMC and in the assay with HepG2 was “inactive” each time. The growth inhibition call with S. aureus RN4220 was “inactive”.
Take `O=C(C[C@H]1C=C[C@@H](NC(=O)C2CCC2)[C@H](CO)O1)NCCCN1CCOCC1`: the cytotoxicity call in the assay on HSkMC and in the assay with HepG2 was “inactive” each time. In addition, the growth inhibition call with S. aureus RN4220 was “inactive”.
With `Cc1ccc(S(=O)(=O)Nc2ccc3c(c2)C(=O)N([C@H](C)CO)C[C@H](C)[C@H](CN(C)Cc2ccc(Oc4ccccc4)cc2)O3)cc1`, the cytotoxicity call in the assay on HSkMC and with HepG2 was “inactive” in each case. In addition, the growth inhibition call in the assay on S. aureus RN4220 was “inactive”.
Regarding `C[C@@H]1CN([C@@H](C)CO)C(=O)c2cccc(NC(=O)Nc3ccccc3)c2O[C@H]1CN(C)Cc1ccc(C(=O)Nc2ccccc2N)cc1`, the cytotoxicity call with HSkMC and in the assay on HepG2 was “inactive” throughout. Further, the growth inhibition call in the assay with S. aureus RN4220 is “inactive”.
`C[C@@H]1CCCCO[C@@H](CN(C)Cc2ccc(Cl)c(Cl)c2)[C@@H](C)CN([C@H](C)CO)C(=O)c2cc(NS(=O)(=O)c3ccc(F)cc3)ccc2O1`: the cytotoxicity call with HSkMC is “inactive”. Also, the cytotoxicity call in the assay with HepG2 was “active”. Besides, in the assay with S. aureus RN4220, the growth inhibition call is “inactive”.
Consider `Cc1noc(C)c1NC(=O)N(C)C[C@@H]1Oc2ccc(NC(=O)NC(C)C)cc2C(=O)N([C@@H](C)CO)C[C@H]1C`, for which the cytotoxicity call in the assay with HSkMC and with HepG2 was “inactive” each time. For the same molecule, the growth inhibition call in the assay with S. aureus RN4220 is “inactive”.
Consider `C[C@H](CO)N1C[C@H](C)[C@@H](CN(C)Cc2ccc(C(=O)O)cc2)Oc2ccc(NC(=O)Nc3ccc(C(F)(F)F)cc3)cc2CC1=O`, for which the cytotoxicity call in the assay on HSkMC (human skeletal muscle cells) and with HepG2 was “inactive” each time. In the assay on S. aureus RN4220, the growth inhibition call is “inactive”.
Turning to `COc1ccc(NC(=O)N(C)C[C@H]2OCCCC[C@@H](C)Oc3ccc(NS(=O)(=O)c4ccc(OC)cc4)cc3C(=O)N([C@@H](C)CO)C[C@H]2C)cc1`, the cytotoxicity call with HSkMC and in the assay with HepG2 was “inactive” each time. Further, the growth inhibition call with S. aureus RN4220 is “inactive”.
For the molecule `Cc1ccc(S(=O)(=O)N(C)C[C@H]2Oc3c(NC(=O)NC(C)C)cccc3C(=O)N([C@@H](C)CO)C[C@@H]2C)cc1`, the cytotoxicity call with HSkMC and with HepG2 was “inactive” throughout. Besides, the growth inhibition call with S. aureus RN4220 was “inactive”.
As to `C[C@@H]1CN([C@H](C)CO)C(=O)c2cc(C#Cc3ccccc3F)cnc2O[C@@H]1CN(C)C(=O)c1ccc2c(c1)OCO2`, the cytotoxicity call in the assay with HSkMC and in the assay on HepG2 was “inactive” in each case. The growth inhibition call in the assay on S. aureus RN4220 is “inactive”.

(Values after the antibiotic and cytotoxicity screens of Wong et al. (2023).)
